# Results published in the supplement of paper PMC8728848.
# This is one part of the list.
# Experiments:
# Assay in all cases: glycan array binding signal (z-score within array); higher = stronger binding
# Details in all cases: glycan notation: IUPAC condensed, linker removed
# [1] = biological target: Fuc(a1-2)Gal
# Method in brief: (§1)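 Columns mapping to the same glycan were averaged after glycan names were converted to IUPAC-condensed notation. The data come from 3228 arrays in the Consortium for Functional Glycomics database, limited to those with an available protein sequence. Binding is reported as a within-array Z-score averaged across arrays of one protein sequence and across linkers.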
# [2] = biological target: Fuc(a1-2)Gal(b1-3)GalNAc
# Method in brief: as §1
# [3] = biological target: Fuc(a1-2)Gal(b1-3)GalNAc(a1-3)[Fuc(a1-2)]Gal(b1-4)Glc
# Method in brief: as §1
# [4] = biological target: Fuc(a1-2)Gal(b1-3)GalNAc(a1-3)[Fuc(a1-2)]Gal(b1-4)GlcNAc
# Method in brief: as §1
# [5] = biological target: Fuc(a1-2)Gal(b1-3)GalNAc(b1-3)Gal
# Method in brief: as §1
# [6] = biological target: Fuc(a1-2)Gal(b1-3)GalNAc(b1-3)Gal(a1-4)Gal(b1-4)Glc
# Method in brief: as §1
# [7] = biological target: Fuc(a1-2)Gal(b1-3)GalNAc(b1-4)[Neu5Ac(a2-3)]Gal(b1-4)Glc
# Method in brief: as §1
# [8] = biological target: Fuc(a1-2)Gal(b1-3)GlcNAc
# Method in brief: as §1
# [9] = biological target: Fuc(a1-2)Gal(b1-3)GlcNAc(b1-2)Man(a1-3)[Fuc(a1-2)Gal(b1-3)GlcNAc(b1-2)Man(a1-6)]Man(b1-4)GlcNAc(b1-4)GlcNAc
# Method in brief: as §1
# [10] = biological target: Fuc(a1-2)Gal(b1-3)GlcNAc(b1-2)Man(a1-3)[Fuc(a1-2)Gal(b1-3)GlcNAc(b1-2)Man(a1-6)]Man(b1-4)GlcNAc(b1-4)[Fuc(a1-6)]GlcNAc
# Method in brief: as §1
# [11] = biological target: Fuc(a1-2)Gal(b1-3)GlcNAc(b1-3)Gal(b1-4)Glc
# Method in brief: as §1
# [12] = biological target: Fuc(a1-2)Gal(b1-3)GlcNAc(b1-3)GalNAc
# Method in brief: as §1
# [13] = biological target: Fuc(a1-2)Gal(b1-3)GlcNAc(b1-3)[Fuc(a1-2)Gal(b1-3)GlcNAc(b1-6)]GalNAc
# Method in brief: as §1
# [14] = biological target: Fuc(a1-2)Gal(b1-3)GlcNAc(b1-3)[Gal(b1-4)GlcNAc(b1-6)]Gal(b1-4)Glc
# Method in brief: as §1
# [15] = biological target: Fuc(a1-2)Gal(b1-3)GlcNAc(b1-3)[Neu5Ac(a2-6)Gal(b1-4)GlcNAc(b1-6)]Gal(b1-4)Glc
# Method in brief: as §1
# [16] = biological target: Fuc(a1-2)Gal(b1-3)GlcNAc6S
# Method in brief: as §1
# [17] = biological target: Fuc(a1-2)Gal(b1-3)[Fuc(a1-4)]GlcNAc
# Method in brief: as §1
# [18] = biological target: Fuc(a1-2)Gal(b1-3)[Fuc(a1-4)]GlcNAc(b1-2)Man(a1-3)[Fuc(a1-2)Gal(b1-3)[Fuc(a1-4)]GlcNAc(b1-2)Man(a1-3)]Man(b1-4)GlcNAc(b1-4)GlcNAc
# Method in brief: as §1
# [19] = biological target: Fuc(a1-2)Gal(b1-3)[Fuc(a1-4)]GlcNAc(b1-2)Man(a1-3)[Fuc(a1-2)Gal(b1-3)[Fuc(a1-4)]GlcNAc(b1-2)Man(a1-6)]Man(b1-4)GlcNAc(b1-4)[Fuc(a1-6)]GlcNAc(b1-4)[Fuc(a1-6)]GlcNAc
# Method in brief: as §1
# [20] = biological target: Fuc(a1-2)Gal(b1-3)[Fuc(a1-4)]GlcNAc(b1-3)[Fuc(a1-3)[Gal(b1-4)]GlcNAc(b1-6)]Gal(b1-4)Glc
# Method in brief: as §1
# [21] = biological target: Fuc(a1-2)Gal(b1-3)[Fuc(a1-4)]GlcNAc(b1-3)[Gal(b1-4)GlcNAc(b1-6)]Gal(b1-4)Glc
# Method in brief: as §1
# [22] = biological target: Fuc(a1-2)Gal(b1-4)Glc
# Method in brief: as §1
# [23] = biological target: Fuc(a1-2)Gal(b1-4)Glc6S
# Method in brief: as §1
# [24] = biological target: Fuc(a1-2)Gal(b1-4)GlcNAc
# Method in brief: as §1
# [25] = biological target: Fuc(a1-2)Gal(b1-4)GlcNAc(b1-2)Man
# Method in brief: as §1
# [26] = biological target: Fuc(a1-2)Gal(b1-4)GlcNAc(b1-2)Man(a1-3)[Fuc(a1-2)Gal(b1-4)GlcNAc(b1-2)Man(a1-6)]Man(b1-4)GlcNAc(b1-4)GlcNAc
# Method in brief: as §1
# [27] = biological target: Fuc(a1-2)Gal(b1-4)GlcNAc(b1-2)Man(a1-3)[Fuc(a1-2)Gal(b1-4)GlcNAc(b1-2)Man(a1-6)]Man(b1-4)GlcNAc(b1-4)[Fuc(a1-6)]GlcNAc
# Method in brief: as §1
# [28] = biological target: Fuc(a1-2)Gal(b1-4)GlcNAc(b1-2)[Fuc(a1-2)Gal(b1-4)GlcNAc(b1-4)]Man(a1-3)[Fuc(a1-2)Gal(b1-4)GlcNAc(b1-2)Man(a1-6)]Man(b1-4)GlcNAc(b1-4)GlcNAc
# Method in brief: as §1
# [29] = biological target: Fuc(a1-2)Gal(b1-4)GlcNAc(b1-3)Gal(b1-4)GlcNAc
# Method in brief: as §1
# [30] = biological target: Fuc(a1-2)Gal(b1-4)GlcNAc(b1-3)Gal(b1-4)GlcNAc(b1-2)Man(a1-3)[Fuc(a1-2)Gal(b1-4)GlcNAc(b1-3)Gal(b1-4)GlcNAc(b1-2)Man(a1-6)]Man(b1-4)GlcNAc(b1-4)GlcNAc
# Method in brief: as §1
binder,measurement,setting,value
Clec49 (Caenorhabditis elegans) (protein) MTRLTLLLFGLLGAATAQTCNTGGIYNEQFNRCYQYFTAPAQFSFAEQQCNLLGGHLASVQNGQENALLQSNAANSFKRSNYSDYWIGATDLETSGTWKWTDPSVTFDYSNWQLGEPQSGSDCAIQDKGDGTWSAIGCTSYRPYVCVTPVIMTATCPPITTPIPTTCPTPAPCPIKQCVPSCDQGWTYFSPTDFCYRVYHGEKFNDAEASCVLLGGHLASIHSLTENTFVNNIASCGIKEGKYEHLAWIGMRKVGQDWVWTDGTPSDYFNWAPKQPDNPKKELCVQTAPDLSHDKWYENWNNLECNEVMRAYICKKASIHN,glycan array binding signal (z-score),[1],-0.075
same,glycan array binding signal (z-score),[2],-0.662
same,glycan array binding signal (z-score),[3],0.087
same,glycan array binding signal (z-score),[4],-0.49
same,glycan array binding signal (z-score),[5],-0.69
same,glycan array binding signal (z-score),[6],-0.229
same,glycan array binding signal (z-score),[7],-0.798
same,glycan array binding signal (z-score),[8],-0.244
same,glycan array binding signal (z-score),[9],1.97
same,glycan array binding signal (z-score),[10],-0.114
same,glycan array binding signal (z-score),[11],-0.721
same,glycan array binding signal (z-score),[12],-0.025
same,glycan array binding signal (z-score),[13],-0.2
same,glycan array binding signal (z-score),[14],0.231
same,glycan array binding signal (z-score),[15],-0.627
same,glycan array binding signal (z-score),[16],-0.559
same,glycan array binding signal (z-score),[17],-0.335
same,glycan array binding signal (z-score),[18],0.844
same,glycan array binding signal (z-score),[19],0.548
same,glycan array binding signal (z-score),[20],-0.463
same,glycan array binding signal (z-score),[21],0.21
same,glycan array binding signal (z-score),[22],-1.05
same,glycan array binding signal (z-score),[23],0.229
same,glycan array binding signal (z-score),[24],-0.203
same,glycan array binding signal (z-score),[25],-0.406
same,glycan array binding signal (z-score),[26],1.29
same,glycan array binding signal (z-score),[27],0.612
same,glycan array binding signal (z-score),[28],-0.032
same,glycan array binding signal (z-score),[29],-0.957
same,glycan array binding signal (z-score),[30],-0.03
